Test results published in PubChem BioAssay AID1460 (National Center for Advancing Translational Sciences (NCATS), 2008).
Screen size: about 270,000 compounds; about 5,800 (2.1%) were called active. The inconclusive results got no clear call from the source; some entries with a clear call stand among them for comparison. The call rests on the fitted dose curve; in most records, active means well fitted inhibition curve with a large enough effect; inconclusive means small, poorly fitted or top-dose-only effect; inactive means flat fitted curve, though single readings scatter. Potencies of inconclusive entries are doubtful fits and often do not repeat.

biological target: Microtubule-associated protein tau (Homo sapiens) (UniProt P10636); test: qHTS for Inhibitors of Tau Fibril Formation, Thioflavin T Binding; conditions: recombinant tau K18 P301L (four-repeat tau fragment), heparin-induced fibrillization, ThT fluorescence; series mostly up to 57.4 µM; further: nearly all actives have a fitted effect of over 55% in size
Sequence of UniProt P10636 (P10636 whole entry, looked up, the tested form may be a part): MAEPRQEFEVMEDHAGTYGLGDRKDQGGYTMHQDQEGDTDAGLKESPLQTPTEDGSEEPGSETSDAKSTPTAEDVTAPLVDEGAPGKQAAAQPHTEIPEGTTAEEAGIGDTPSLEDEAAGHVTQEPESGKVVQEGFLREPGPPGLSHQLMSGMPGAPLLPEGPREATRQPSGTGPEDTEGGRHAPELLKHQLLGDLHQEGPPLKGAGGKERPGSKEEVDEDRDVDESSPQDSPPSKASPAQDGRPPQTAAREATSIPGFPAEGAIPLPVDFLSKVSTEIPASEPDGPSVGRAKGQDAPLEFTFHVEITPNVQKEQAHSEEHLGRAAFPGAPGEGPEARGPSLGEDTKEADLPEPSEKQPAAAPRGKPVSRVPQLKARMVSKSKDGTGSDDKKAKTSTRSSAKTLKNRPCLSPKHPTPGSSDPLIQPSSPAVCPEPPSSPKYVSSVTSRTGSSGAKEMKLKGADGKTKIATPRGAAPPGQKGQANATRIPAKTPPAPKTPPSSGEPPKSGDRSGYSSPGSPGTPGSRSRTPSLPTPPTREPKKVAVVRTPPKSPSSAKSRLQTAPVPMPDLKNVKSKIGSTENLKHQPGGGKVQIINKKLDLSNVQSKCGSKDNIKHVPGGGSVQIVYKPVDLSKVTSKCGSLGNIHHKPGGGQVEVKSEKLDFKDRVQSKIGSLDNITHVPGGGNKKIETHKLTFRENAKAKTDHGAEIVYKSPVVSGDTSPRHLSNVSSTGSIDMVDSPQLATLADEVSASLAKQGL
Summary of the method: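 Heparin-induced (20 uM) aggregation of recombinant human K18 P301L tau, 15 uM unlabeled with 0.24 uM labeled, pH 7 acetate buffer, 6 hr at 37 C with compound. Fibrils quantified by 30 uM ThT fluorescence after 1 hr ambient incubation.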
On the % scale 0 is the no-effect control and ±100 the full control effect; potency means the concentration at half of the fitted maximal effect; tags describe the fitted curve by direction and shape.

Structure (SMILES) | Potency | activity, negative = inhibition
Cc1ccccc1-c1nnc(NC(=O)CSc2nc3ccccc3s2)s1 | inconclusive: 0.562 µM [inhibitor, full curve] | –
O=C(N/N=C/c1ccc(O)cc1)c1cccc(N/N=C/c2ccc(O)cc2)c1 | active: 5.01 µM | –
CC1=CCC(C(=O)O)(C(=O)N/N=C/c2cccs2)C(c2ccc([N+](=O)[O-])cc2)C1 (stereo not given) | inconclusive: 35.5 µM [inhibitor, partial curve] | –
Cc1nc(N=Nc2ccc(C(=O)O)cc2)c(COP(=O)(O)O)c(C=O)c1O | inconclusive: 14.1 µM [inhibitor, partial curve] | –
CC(C)(C)OC(=O)N1CCN(c2ccc([N+](=O)[O-])cc2)CC1 | active: 3.98 µM | –
O=C1NC(=S)N/C1=C/c1cccc([N+](=O)[O-])c1O | active: 4.47 µM | –
O=C(N/N=C/c1ccco1)c1ccc(NC(=O)c2ccccc2Cl)cc1 | inconclusive: 11.2 µM [inhibitor, partial curve, poor fit] | –
C[N+]1(CC(=O)NNc2c3ccccc3nc3ccccc23)CCOCC1 | inconclusive: 12.6 µM [inhibitor, partial curve] | –
CCOC(=O)C1=C(N)N2C(=O)CSC2=C(C(=O)OC)C1 | inactive | –
O=C(Nc1cccn(Cc2c(F)cccc2Cl)c1=O)NC1CCCCC1 | inactive | –
Cc1ccc(SCC(=O)Nc2cc([N+](=O)[O-])ccc2O)cc1 | inconclusive: 28.2 µM [inhibitor, partial curve] | –
CC1=Nc2ccccc2/C1=C\c1sc(Nc2ccc(C)cc2)nc1O | active: 7.94 µM | –
COc1ccc(-c2noc(N3CCC(C(=O)N4CCN(c5ccccn5)CC4)CC3)n2)cc1 | inconclusive: 14.1 µM [inhibitor, partial curve] | –
CCn1c2ccccc2c2cc(NC(=O)Nc3ccc([N+](=O)[O-])cc3C)ccc21 | inconclusive: 3.98 µM [inhibitor, partial curve] | –
COc1ccc(/C=N/Nc2ccccn2)c(OC)c1OC | inconclusive: 15.8 µM [inhibitor, single point] | –
CCOc1ccc(N(CC)C(=O)C2CCN(S(=O)(=O)c3cccc4nonc34)CC2)cc1 | inconclusive: 14.1 µM [inhibitor, partial curve] | –
O=C(COc1ccc(Cl)cc1Cl)Nc1ccc2nc3n(c(=O)c2c1)CCCC3 | inconclusive: 1.12 µM [inhibitor, full curve] | –
COc1cccc(OCc2nc3ccccc3n2Cc2ccccc2C)c1 | inconclusive: 28.2 µM [inhibitor, single point] | –
Cc1ccc(C#CC[N+](C)(C)CC#Cc2ccccc2)cc1 | inconclusive: 7.94 µM [activator, single point] | –
C/C(=N\NC(=O)c1nc2ccccn2c1C)c1cccc([N+](=O)[O-])c1 | inconclusive: 22.4 µM [inhibitor, partial curve, poor fit] | –
Clc1cccc(-c2nnc(SC/C=C/c3ccccc3)n2Cc2ccco2)c1 | inconclusive: 25.1 µM [inhibitor, partial curve, poor fit] | –
O=C(CSc1nnnn1C1CCCCC1)N1CCN(C(=O)c2ccco2)CC1 | active: 3.55 µM | –
COc1cc2cc(CN(CCc3cccc(C)c3)C(=S)NCCCN(C)C)c(=O)[nH]c2cc1OC | inactive | –
CCOCCCNc1nc2c(C)cccn2c(=O)c1/C=C1\SC(=S)N(C(C)CC)C1=O (stereo not given) | inconclusive: 8.91 µM [inhibitor, partial curve] | –

Structure (SMILES) | Potency | activity, negative = inhibition
COc1ccc(C2CC(=O)N3CN(c4ccccc4F)CSC3=C2C#N)cc1OC (stereo not given) | active: 28.2 µM | –
Cc1ccc(-c2cc(-c3cccc(F)c3)n[nH]2)c(O)c1 | inconclusive: 3.55 µM [inhibitor, partial curve] | –
CC1(C)Cc2cccc(C(=O)Nc3ccc(F)cc3F)c2O1 | inconclusive: 2.24 µM [inhibitor, partial curve] | –
COc1ccc2[nH]cc(CCNc3cc(-c4ccccc4C(F)(F)F)ncn3)c2c1 | inactive | –
Cc1cc(Nc2cccc(Cl)c2)nc(NCc2ccccc2)n1 | inconclusive: 25.1 µM [activator, single point] | –
COCCNC(=O)Cn1cc(C(=S)N2CCOCC2)c2ccccc21 | inactive | –
COc1ccc(-n2c(C)cc(/C=C3\SC(=S)N(Cc4ccco4)C3=O)c2C)cc1 | inconclusive: 12.6 µM [inhibitor, partial curve] | –
COc1ccc(C2C(C(=O)N3CCN(c4ccccc4)CC3)c3ccccc3C(=O)N2C)cc1 (stereo not given) | inactive | –
O=C(COC(=O)CNC(=O)c1ccccc1Cl)Nc1ncc(C(F)(F)F)cc1Cl | inactive | –
Clc1cccc(CNc2cc(-c3ccccc3)nc3nncn23)c1 | inconclusive: 35.5 µM [activator, single point] | –
CN(C)C=C1C(=O)c2ccccc2C1=O | inconclusive: 22.4 µM [inhibitor, single point] | –
Cc1nnc(N(C(=O)c2cnccn2)c2ccccc2)s1 | inactive | –
CC(=O)OCC1=C(C(=O)O)N2C(=O)C(NC(=O)CCn3nc(C)c(Cl)c3C)C2SC1 (stereo not given) | inconclusive: 10 µM [inhibitor, partial curve] | –
O=C1OCCC1Sc1nnc(-c2ccc3c(c2)OCO3)o1 (stereo not given) | inactive | –
O=C(CSc1c(Cl)cccc1Cl)N1CCC(c2nc3ccccc3s2)CC1 | inconclusive: 17.8 µM [inhibitor, partial curve] | –
CCc1ccc(-c2cc(C(=O)NCc3ccco3)c3ccccc3n2)s1 | active: 25.1 µM | –
CCOc1ccc(-c2cc(C(=O)Nc3ccc(NC(C)=O)cc3)no2)cc1 | inconclusive: 0.447 µM [inhibitor, full curve] | –
O=C(O)CCCNc1cc(N2CCN(C3CCCCC3)CC2)c2noc3c2c1C(=O)c1ccccc1-3 | active: 8.91 µM | –
CCOc1ccc(OCC)c(NC(=O)CC(C)n2nc(C)cc2C)c1 (stereo not given) | inactive | –
COc1ccccc1N1CCN(Cc2cccs2)CC1 | inconclusive: 44.7 µM [inhibitor, single point] | –
Cc1cc(N)c(-n2cc3c(c2-c2ccc(Br)cc2)c(=O)n(C)c(=O)n3C)cc1C | inconclusive: 20 µM [inhibitor, partial curve] | –
COc1ccc(C(c2c(O)cc(C)oc2=O)c2c(O)cc(C)oc2=O)cc1 | inconclusive: 12.6 µM [inhibitor, partial curve] | –
O=C(c1ccco1)N1CCN(c2c([N+](=O)[O-])nn(-c3cccc(Cl)c3)[n+]2[O-])CC1 | inconclusive: 25.1 µM [inhibitor, partial curve, poor fit] | –
Cc1cc2ccccc2n1CCNC(=O)c1ccccc1 | inconclusive: 28.2 µM [inhibitor, partial curve] | –

Structure (SMILES) | Potency | activity, negative = inhibition
O=C(Nc1ccc(N2CCCCC2)cc1)c1cccnc1Cl | inconclusive: 12.6 µM [inhibitor, partial curve] | –
Cc1ccccc1Nc1nc(-c2ccccc2)c(C(=O)Nc2cccnc2)s1 | inconclusive: 31.6 µM [inhibitor, single point] | –
COc1ccc(CNC(=O)c2csc(Cc3ccc(Cl)cc3)n2)cc1 | inconclusive: 15.8 µM [inhibitor, partial curve] | –
O=C(NC(=S)N1CCN(c2ccc(Cl)cc2[N+](=O)[O-])CC1)c1cccs1 | inactive | –
Cc1cc(=O)oc2cc(NC(=O)c3cc([N+](=O)[O-])ccc3N3CCOCC3)ccc12 | inactive | –
Cc1ccc2cc(C#N)c(N3CCCC3)nc2c1C | inconclusive: 12.6 µM [inhibitor, partial curve] | –
COc1cccc(NC(=O)Nc2cc(C)ccc2OC)c1 | inconclusive: 10 µM [inhibitor, partial curve] | –
CC(=O)Nc1ccc(NC(=O)CSc2nc3nc(-c4cccs4)cc(C(F)(F)F)c3c(=O)[nH]2)cc1 | inconclusive: 5.01 µM [inhibitor, full curve, poor fit] | –
CC1CC(C)(C)NCc2ccccc21 (stereo not given) | inconclusive: 35.5 µM [inhibitor, partial curve] | –
Cc1c(/C=N/NC(=O)c2sc3ccccc3c2Cl)cnn1C | inconclusive: 3.16 µM [inhibitor, full curve] | –
CCOC(=O)c1ccccc1NC(=O)CSc1nc(=O)[nH]c2c1CCC2 | inactive | –
O=[N+]([O-])c1ccccc1NC(=S)N/N=C/c1ccc(O)c(O)c1 | active: 5.62 µM | –
O=c1cc(CSc2nc(NCc3ccccc3)c3ccccc3n2)nc2ccc(Cl)cn12 | inactive | –
Cc1ccc(CSc2nnc(-c3ccc4c(c3)OCO4)o2)cc1 | inconclusive: 3.98 µM [inhibitor, full curve] | –
Cn1c(=O)c2c(O)c(Cc3ccccc3)c(=O)[nH]c2n(C)c1=O | inactive | –
O=C1C=C(O)c2cccc(O)c2C1=O | inconclusive: 15.8 µM [inhibitor, partial curve] | –
Cc1cc(C)c(C)c(OC(=O)c2sc(Cl)nc2C)c1 | inconclusive: 28.2 µM [inhibitor, single point] | –
CCOc1ccc(-n2nc(CO)c(C(=O)NCCCc3ccccc3)n2)cc1 | inconclusive: 7.94 µM [inhibitor, full curve, poor fit] | –
COC(=O)CC1c2ccccc2C(Cc2ccc(OC)cc2)C(C)N1C(=O)OC (stereo not given) | – | inactive: 13% [at 11.5 µM]
Cc1nc2ccccc2n2c(O)c(CC(=O)O)cc12 | inactive | –
Nc1cc(Cl)nc(N/N=C/c2ccccc2[N+](=O)[O-])n1 | inconclusive: 17.8 µM [inhibitor, partial curve] | –
Cn1c(SCC2CCCO2)nnc1-c1ccc([N+](=O)[O-])cc1 (stereo not given) | inconclusive: 14.1 µM [inhibitor, partial curve] | –
